Test results: patent US11116212B2, “Carbonyl containing compounds for controlling and repelling Cimicidae populations” (SemiosBio Technologies Inc., priority 2011, dated 2021)
“And” between values parts separate entries of the source, which are not always exact repeats. Identical values can stand only once. Counter-ions that a name gives are not always drawn. The name of at least one read-out is uncertain.

Tested on: bed bugs, Cimex lectularius
Test: Bed bug repellency bioassay, glass tube olfactometer arena
Format: in vivo
Conditions: for % Repellency (% R), Overall Average: average of 3 replicates x 3 observation periods
Description: Per individual bioassay, 10 adult or late instar nymph bed bugs, Cimex lectularius, of mixed sex. Bed bugs sourced from wild, field populations and tested within 2 weeks of capture. Subjects were tested one time, only.
(ii) Olfactometer consisting of a glass tube. Tube ends were plugged to prevent egress of test subjects. Test substrates were placed at opposite ends of the tube. Tube Olfactometer includes a port in the centre for introduction of test subjects. Dimensions of the tube were 15.2 mm in diameter by 304.8 mm long.
Compounds were either purchased from commercial sources or synthesized using conventional synthetic organic chemistry techniques (see, for example, Examples 5 to 7). Some compounds (014, 058 and 080) were tested in duplicate (one version from commercial sources and one synthesized) and the best performance is reported in the Tables below. Of the tested compounds reported in the Tables below, the following compounds were synthesized: 006, 010, 017, 018, 040, 041 to 043, 045, 046, 048, 049, 058, 067 to 075, 079, 080 to 082, 089 and 090.
Test compounds consisted of a control and treatment. The treatment consisted of a test compound mixed as a percentage w/w in a suitable solvent. The test compound solvent itself was used as a control. Solvents used were hexane, hexane:methanol, or dichloromethane:methanol.
(i) Gauze cut to a standard size and folded upon itself to provide harbourage for test subjects.
(iii) Absorbent polymer “aroma” beads that were given sufficient time to fully absorb test compounds and control solvents.
In the case of gauze and filter paper substrates, control solvents and test mixtures of known concentrations and volumes were dispensed directly onto substrates using a pipette. For polymer beads, beads were mixed w/w with solvent or test compound in a small glass jar. The jars were occasionally agitated to facilitate soaking of the beads.
Immediately after the substrates were infused with test compounds and control solvents, test subjects were introduced to the centre of the selected observation arena. […] Only subjects that were in close contact with the treatment or control substrates were recorded. Subjects elsewhere in the arena were not included in repellency calculations. Percentage repellency was calculated based on a modification of Abbott's formula to account for negative repellency (attraction). Specifically: IF(C>=T,(C−T)/C*100,(T−C)/T*−100)
where C is number of test subjects in contact with control substrate and T is number of test subjects in contact with treatment substrate.
All average repellency results reported in the table are based on 3 replicates for each reported trial, with each trial involving at least 3 observation periods. The observation periods were short-term (30 min), medium-term (1-2 hours), and long-term (24-48 hours). The “overall average” reported in the table represents the average for 3 replicates for 3 observation periods. […]
To determine whether compounds could be combined in the repellent compositions, compounds 14 and 35 were each tested at a concentration of 5% (w/w), and as a combination comprising each compound at a concentration of 2.5% (w/w). The formulations were tested as described in Example 1 using the olfactometer configuration.

[1] = observation period T1, individual repetitions 1-3, gauze, 10 uL, 1% v/v in hexane
[2] = observation period T2, individual repetitions 1-3, gauze, 10 uL, 1% v/v in hexane
[3] = observation period T3, individual repetitions 1-3, gauze, 10 uL, 1% v/v in hexane
[4] = beads, 20 uL, 25% w/w in hexane
[5] = observation period T1, individual repetitions 1-3, gauze, 50 uL, 5% w/v in hexane
[6] = observation period T2, individual repetitions 1-3, gauze, 50 uL, 5% w/v in hexane
[7] = observation period T3, individual repetitions 1-3, gauze, 50 uL, 5% w/v in hexane

CC(=O)/C=C/C=O [Compound 001, 4-oxo-2-pentenal]
% Repellency (% R), Overall Average (gauze, 50 uL, 5% w/v in hexane): 57%

CCCC(=O)/C=C/C=O [Compound 003, 4-oxo-2-heptenal]
% Repellency (% R), Overall Average (gauze, 50 uL, 5% w/v in hexane): 90%

CCC(=O)/C=C/CO [Compound 006, (E)-6-hydroxyhex-4-en-3-one]
% Repellency T1 (single repetition) [1]: −25% and −71% and −90%
% Repellency T2 (single repetition) [2]: −60% and −71% and −90%
% Repellency T3 (single repetition) [3]: 0% and 57% and −89%

CCC(=O)c1ccco1 [Compound 014, 1-(furan-2-yl)propan-1-one]
% Repellency (% R), Overall Average [4]: 94%

C=CCOC(=O)CC [Compound 017, allyl propionate]
% Repellency T1 (single repetition) [1]: 0% (2×) and −60%
% Repellency T2 (single repetition) [2]: 90% and −83% and 33%
% Repellency T3 (single repetition) [3]: 63% and −75% and 67%

CCCCCCCCCCCC(C)=O [Compound 024, Methyl undecyl ketone (2-tridecanone)]
% Repellency (% R), Overall Average (gauze, 50 uL, 5% w/v in hexane): 90%

CC(=O)C(C)C(C)C(C)=O (centres unmarked) [Compound 025, 3,4-dimethyl-2,5-hexanedione]
% Repellency (% R), Overall Average [4]: 77%

CCCC(=O)CC [Compound 026, 3-Hexanone]
% Repellency T1 (single repetition) [5]: 83% and −50% and 100%
% Repellency T2 (single repetition) [6]: 100% and −50% and 60%
% Repellency T3 (single repetition) [7]: −67% and −100% and 60%

CCCCCCC(=O)CC [Compound 028, 3-Nonanone]
% Repellency T1 (single repetition) [1]: 0% (2×) and −33%
% Repellency T2 (single repetition) [2]: 0% (2×) and −33%
% Repellency T3 (single repetition) [3]: −43% (2×) and 67%

C=COC(=O)CC [Compound 031, Vinyl propionate]
% Repellency T1 (single repetition) [5]: 100% and 60% and −25%
% Repellency T2 (single repetition) [6]: 100% and 60% and −25%
% Repellency T3 (single repetition) [7]: −60% (2×) and −80%

CCC(=O)OCc1ccco1 [Compound 035, Furfuryl propionate]
% Repellency (% R), Overall Average [4]: 94%

CCCCCC=O [Compound 037, hexanal]
% Repellency (% R), Overall Average (gauze, 50 uL, 5% w/v in hexane): 79%

CCC/C=C/C=O [Compound 038, trans-2-hexen-1-al]
% Repellency (% R), Overall Average (gauze, 50 uL, 5% w/v in hexane): 72%

CCCCC/C=C/C=O [Compound 039, trans-2-octenal]
% Repellency (% R), Overall Average (gauze, 50 uL, 5% w/v in hexane): 78%

CCC(=O)/C=C/c1ccco1 [Compound 040, (E)-1-(furan-2-yl)pent-1-en-3-one]
% Repellency (% R), Overall Average (gauze, 50 uL, 5% w/v in hexane): 94%

CCCCC(=O)/C=C/CO [Compound 041, (E)-1-hydroxyoct-2-en-4-one]
% Repellency (% R), Overall Average (gauze, 50 uL, 5% w/v in hexane): 98%

CCC(=O)/C=C/C(C)O (centres unmarked) [Compound 042, (E)-6-hydroxyhept-4-en-3-one]
% Repellency (% R), Overall Average (gauze, 50 uL, 5% w/v in hexane): 76%

C=CCNC(=O)CC [Compound 043, N-allylpropionamide]
% Repellency (% R), Overall Average (gauze, 50 uL, 5% w/v in hexane): 59%

CC(=O)CC/C=C(\C)CCC=C(C)C [Compound 044, 6,10-dimethyl-5,9-undecadien-2-one]
% Repellency (% R), Overall Average (gauze, 50 uL, 5% w/v in hexane): 98%

CCC(=O)NCC(OC)OC [Compound 045, N-(2,2-dimethoxyethyl) propionamide]
% Repellency (% R), Overall Average (gauze, 50 uL, 5% w/v in hexane): 70%

CCCC(=O)/C=C/CO [Compound 046, (E)-1-hydroxyhept-2-en-4-one]
% Repellency (% R), Overall Average (gauze, 50 uL, 5% w/v in hexane): 65%

CCC(=O)/C(C)=C/c1ccco1 [Compound 048, (E)-1-(furan-2-yl)-2-methylpent-1-en-3-one]
% Repellency (% R), Overall Average (gauze, 50 uL, 5% w/v in hexane): 96%

CCC(=O)N(C)CC(OC)OC [Compound 049, N-(2,2-dimethoxyethyl)-N-methylpropionamide]
% Repellency (% R), Overall Average (gauze, 10 uL, 1% v/v in hexane): 78%

CCCC(=O)CCC [Compound 051, 4-heptanone]
% Repellency (% R), Overall Average [4]: 81%

COC(=O)CCC=O [Compound 052, Methyl 4-oxobutanoate]
% Repellency T1 (single repetition) (observation period T1, individual repetitions 1-3, beads, 20 uL, 25% w/w in hexane): 33% and 0% (2×)
% Repellency T2 (single repetition) (observation period T2, individual repetitions 1-3, beads, 20 uL, 25% w/w in hexane): −100% and −50% and 0%
% Repellency T3 (single repetition) (observation period T3, individual repetitions 1-3, beads, 20 uL, 25% w/w in hexane): −100% and −33% and 100%

CN(C)C(=O)CCC(=O)O [Compound 053, 4-(Dimethylamino)-4-Oxobutanoic acid]
% Repellency (% R), Overall Average (gauze, 10 uL, 1% v/v in hexane): 52%

CCC(=O)C(=O)OC [Compound 054, Methyl-2-oxobutanoate]
% Repellency (% R), Overall Average (gauze, 10 uL, 1% v/v in hexane): 85%

COC(=O)/C=C/C(C)=O [Compound 056, Methyl trans-4-oxo-2-pentenoate]
% Repellency (% R), Overall Average (gauze, 50 uL, 5% w/v in hexane): 53%

CCOC(=O)/C=C(\C)C=O [Compound 057, Ethyl 3-methyl-4-oxocrotonate]
% Repellency (% R), Overall Average [4]: 91%

COC(=O)/C=C/C(=O)OC [Compound 058, dimethyl fumarate]
% Repellency (% R), Overall Average (gauze, 50 uL, 5% w/v in hexane): 86%

CCC(=O)OCC1CCCO1 (centres unmarked) [Compound 060, Tetrahydro furfuryl propionate]
% Repellency (% R), Overall Average [4]: 78%

CCCCCCCCCCC(C)=O [Compound 061, 2-dodecanone]
% Repellency (% R), Overall Average (gauze, 50 uL, 5% w/v in hexane): 90%

CCC(=O)CC [Compound 062, 3-pentanone]
% Repellency T1 (single repetition) [5]: 71% and −83% and −20%
% Repellency T2 (single repetition) [6]: 71% and −60% and −20%
% Repellency T3 (single repetition) [7]: 89% and 60% and −20%

CCC(=O)/C=C/C(=O)CC [Compound 067, (E)-oct-4-ene-3,6-dione]
% Repellency (% R), Overall Average (gauze, 50 uL, 5% w/v in hexane:methanol (1:1)): 100%

CC(O)c1ccco1 (centres unmarked) [Compound 069, 1-(furan-2-yl)ethanol]
% Repellency (% R), Overall Average [4]: 94%

CCC(=O)/C=C/C(=O)O [Compound 070, (E)-4-oxohex-2-enoic acid]
% Repellency (% R), Overall Average (gauze, 10 uL, 1% v/v in hexane:methanol (1:1)): 74%

CC(C)C(O)c1ccco1 (centres unmarked) [Compound 071, 1-(furan-2-yl)-2-methylpropan-1-ol]
% Repellency (% R), Overall Average (gauze, 10 uL, 1% v/v in hexane): 57%

CCC(C)C(O)c1ccco1 (centres unmarked) [Compound 072]
% Repellency (% R), Overall Average (gauze, 50 uL, 5% w/v in hexane): 79%

CCCCC(O)c1ccco1 (centres unmarked) [Compound 073, 1-(furan-2-yl) pentan-1-ol]
% Repellency (% R), Overall Average (gauze, 50 uL, 5% w/v in hexane): 92%

CCC(=O)/C=C(\C)C(C)=O [Compound 074, (E)-3-methylhept-3-ene-2,5-dione]
% Repellency (% R), Overall Average (beads, 20 uL, 25% w/w in dichloromethane:methanol (1:1)): 90%

CCC(O)c1ccco1 (centres unmarked) [Compound 075, 1-(furan-2-yl) propan-1-ol]
% Repellency (% R), Overall Average (gauze, 10 uL, 1% v/v in hexane): 79%

CCOC(=O)CCC(C)=O [Compound 076, ethyl levulinate]
% Repellency (% R), Overall Average (gauze, 50 uL, 5% w/v in hexane): 69%

C=CC(O)c1ccco1 (centres unmarked) [Compound 078, 2-Furanmethanol, a-ethenyl-]
% Repellency (% R), Overall Average [4]: 84%

CCOC(C#CC(=O)CC)OCC [Compound 079, 6,6-diethoxyhex-4-yn-3-one]
% Repellency (% R), Overall Average (gauze, 50 uL, 5% w/v in hexane): 100%

CC(=O)c1ccco1 [Compound 080, 2-Furyl methyl ketone]
% Repellency (% R), Overall Average (gauze, 50 uL, 5% w/v in hexane): 81%

CC(C)C(=O)c1ccco1 [Compound 082, 1-(2-furyl)-2-methyl-propan-1-one]
% Repellency (% R), Overall Average [4]: 81%

CC(=O)OCc1ccco1 [Compound 084, Furfuryl acetate]
% Repellency (% R), Overall Average [4]: 61%

CCOC(=O)c1ccco1 [Compound 085, Ethyl 2-furoate]
% Repellency (% R), Overall Average [4]: 73%

CCCC(=O)c1ccco1 [Compound 086, 2-butyrylfuran]
% Repellency (% R), Overall Average (beads, 20 uL, 25% w/w in hexane:methanol (1:1)): 92%

CCC(C)C(=O)c1ccco1 (centres unmarked) [Compound 089, 1-furan-2-yl-2-methylbutan-1-one]
% Repellency (% R), Overall Average (gauze, 50 uL, 5% w/v in hexane): 100%

CCCCC(=O)c1ccco1 [Compound 090, 1-Pentanone, 1-(2-furanyl)-]
% Repellency (% R), Overall Average (gauze, 50 uL, 5% w/v in hexane): 94%
